According to PubChem BioAssay AID624171 (National Center for Advancing Translational Sciences (NCATS), 2012):
Out of some 410,000 compounds screened, about 1,200 (0.29%) were called active. This list was built around the results that the source calls inconclusive (neither active nor inactive); the mix of calls is not that of the screen. Calls come from the whole dose curve; as a rule, active = well fitted activation curve with a large enough effect; inconclusive = small, poorly fitted or top-dose-only effect; inactive = flat fitted curve, though single readings scatter. Potencies of inconclusive entries are doubtful fits and often do not repeat.

assay: qHTS of Nrf2 Activators; details: AREc32 ARE-luciferase reporter (MCF7-derived line), luminescence, 24 h; activation: at 46.1 µM (top of the series); note: nearly all actives have a fitted effect of over 65% in size; for activation: % of control where 0% means no effect
How it was run: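 ARE activation measured as luciferase luminescence (Steady-Glo, 30 min RT) in AREc32_Fluc cells after 24 hr compound exposure at 37 deg C, 5% CO2; cells seeded overnight at 1000/well in OPTI-MEM, 5% FBS.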
Potency is the fitted concentration of half-maximal effect; tags give direction and shape of the fitted curve.

Potency, active:
Clc1cc(Cl)cc(Nc2ncnc(-n3cccc3)n2)c1 2 µM
Cc1ccccc1NC(=S)NC(=O)/C=C/c1ccco1 17.8 µM
CC1=CC(=O)C(Sc2ccc(C)cc2)=CC1=O 12.6 µM
CCCn1c(-c2cccs2)nc2nc3ccccc3nc21 4.47 µM
Cc1cc(O)c(C(=O)/C=C/c2cccc([N+](=O)[O-])c2)c(=O)o1 22.4 µM
Cc1cc2c(Nc3ccccc3O)ncnc2s1 11.2 µM

Potency, inconclusive:
Cc1ccc(CSc2nc(-c3cccs3)ccc2C#N)cc1 12.6 µM [activator, partial curve]
Cc1cc(C)cc(OC(=O)CS(=O)c2ccc(C(F)(F)F)cc2[N+](=O)[O-])c1 (stereo unspecified) 3.16 µM [activator, full curve]
CC(NC(=O)Cn1ncc(Cl)c(Cl)c1=O)C12CC3CC(CC(C3)C1)C2 (stereo unspecified) 2.82 µM [activator, partial curve, poor fit]
O=C(NCCNc1cc(Cl)ccc1[N+](=O)[O-])c1ccco1 14.1 µM [activator, single point]
O=c1cc(-c2ccco2)nc(SCc2cccc(Cl)c2)[nH]1 2.82 µM [activator, full curve, poor fit]
COc1ccc(C2C(O)C(c3c[nH]c4ccccc34)=NN2C(=O)CCl)cc1 (stereo unspecified) 3.98 µM [activator, single point]
CC(=O)N1CCN(C(=O)c2cc(=O)c3ccccc3o2)CC1 20 µM [activator, partial curve, poor fit]
O=C(/C=C/c1ccco1)NCc1ccccn1 20 µM [activator, single point]
N/C(=N\OC(=O)c1cccc(Br)c1)c1ccncc1 15.8 µM [activator, partial curve, poor fit]
O=C(Nc1ccccc1O)c1c(O)c2c([nH]c1=O)CCCC2 3.16 µM [activator, single point]
OC(C#Cc1ccccn1)c1cccs1 (stereo unspecified) 31.6 µM [activator, single point]
CC1=CC(C)(C)N(C(=O)CCl)c2ccccc21 17.8 µM [activator, single point]
CC(=O)Nc1ccc(C2Sc3ccccc3NC3=C2C(=O)c2ccccc23)cc1 (stereo unspecified) 20 µM [activator, single point]
Cc1ccnc(NC(=O)c2ccc(Br)s2)c1 11.2 µM [activator, partial curve]
O=C(/C=C/c1cccc(F)c1)N1CCc2ccccc21 3.55 µM [activator, full curve]
Cc1ccc(C2C(C#N)=C(N)Oc3nc(-c4ccccc4)[nH]c32)o1 (stereo unspecified) 25.1 µM [activator, single point]
Cc1ccc(C)c(-c2csc(N/N=C/c3ccco3)n2)c1 11.2 µM [activator, partial curve]
CC(C)C1N=C(c2ccc3c(c2)OCO3)CC(c2ccccc2O)N1 (stereo unspecified) 2.24 µM [activator, partial curve, poor fit]
COc1cc(OC)cc(-c2nc3cc(C)ccc3o2)c1 5.01 µM [activator, partial curve]
CCOc1ccccc1C(=O)N/N=C/c1cccc2cccnc12 3.55 µM [activator, partial curve, poor fit]
Cc1nc(Cl)sc1C(=O)Nc1ccc(Cl)cc1 12.6 µM [activator, partial curve]
O=C(C=NNc1ccccc1)c1ccccc1 14.1 µM [activator, partial curve]
CCOC(=O)NC1(NC2CCCCC2)Oc2ccccc2O1 35.5 µM [activator, partial curve, poor fit]
Cc1cc(O)ccc1Nc1nc(-c2cccnc2)cs1 17.8 µM [activator, single point]
O=C(Nc1cccc2ncccc12)c1ccc([N+](=O)[O-])o1 4.47 µM [activator, single point]
C=COC(=O)c1sc2nc(C)cc(C)c2c1N 7.08 µM [activator, partial curve, poor fit]
CCOC(=O)C1=C(N)n2c(s/c(=C/c3ccco3)c2=O)=C(C(=O)OC)C1c1ccco1 (stereo unspecified) 1.58 µM [activator, full curve]
BrC(=C\c1ccccc1)/C=N/N1CCN(c2ccccn2)CC1 25.1 µM [activator, single point]
CCn1c(C)cc(C=C2C(=O)c3ccccc3C2=O)c1C 11.2 µM [activator, partial curve, poor fit]
COc1cccc(OC)c1C(=O)Nc1nnc(-c2cccs2)s1 10 µM [activator, partial curve, poor fit]
Clc1ccccc1-c1nnc(-c2cccs2)o1 6.31 µM [activator, partial curve, poor fit]
Cc1ccc2oc(-c3cc(NC(=O)/C=C/c4ccco4)ccc3Cl)nc2c1 1 µM [activator, full curve, poor fit]
COC(=O)c1sccc1NC(=O)NC1CCCCC1 12.6 µM [activator, single point]
Cc1ccnc(NC(=O)Nc2ccc(F)cc2)c1 17.8 µM [activator, single point]
COc1ccc(-c2csc3ncnc(Cl)c23)cc1 22.4 µM [activator, single point]
Cc1cnc(NC(=O)/C=C/c2ccc(Br)o2)s1 12.6 µM [activator, partial curve, poor fit]
COc1ccc(C(=O)C=Cc2cccs2)c(O)c1 17.8 µM [activator, single point]
Cn1c(/C=N/O)nc2ccccc21 10 µM [activator, partial curve, poor fit]
FC(F)(F)c1nnc2c(Sc3ccccn3)nc3ccccc3n12 6.31 µM [activator, full curve]
O=C(Nc1ccc(Cl)cc1)C(Cl)C(=O)c1ccccc1 (stereo unspecified) 20 µM [activator, partial curve, poor fit]
NC(=O)N/N=C/c1ccccc1OC(=O)c1ccccc1Br 2 µM [activator, full curve, poor fit]
O=C(O)c1cc(NN=Nc2cccc([N+](=O)[O-])c2)cc([N+](=O)[O-])c1 35.5 µM [activator, single point]
O=C(O)c1ccc(S(=O)(=O)c2ccc([N+](=O)[O-])cc2[N+](=O)[O-])cc1 31.6 µM [activator, single point]
COC(=O)c1sccc1NC(=O)CSc1nnnn1-c1ccccc1F 12.6 µM [activator, single point]
Cc1c(C(=O)Nc2ccccn2)oc2ccccc12 2.82 µM [activator, full curve, poor fit]
Cc1ccccc1NC(=O)/C=C1\SC(=O)NC1=O 35.5 µM [activator, partial curve, poor fit]
O=C(CCN1C(=O)c2cccc3cccc(c23)C1=O)NCc1ccco1 2.24 µM [activator, partial curve, poor fit]
O=C(Nc1ccc(Br)cc1F)c1ncoc1-c1ccco1 2.24 µM [activator, full curve, poor fit]

activation, inactive:
COCCNc1ncnc2c1ncn2[C@H]1CN(Cc2ccc(-c3ccccc3)cc2)C[C@@H](CO)O1 0.481%
CCOC(=O)C1=C(CS(=O)(=O)c2ccc(C)cc2)NC(=O)NC1c1ccc(C(C)C)cc1 (stereo unspecified) 0.206%
Cc1ccc(C(=O)CC2(O)C(=O)N(CCc3ccccc3)c3ccc(Cl)cc32)cc1 (stereo unspecified) -0.451%
Cc1ccc(/C=C/c2onc(C)c2S(=O)(=O)N2CCC(C(=O)NCc3ccc(C)o3)CC2)cc1 0.538%
O=C(NCc1ccc2c(c1)OCO2)c1cc([N+](=O)[O-])ccc1N1CCCCC1 -0.275%
COc1ccc2c(c1)[nH]c1c(N3CCN(Cc4ccc5c(c4)OCO5)CC3)ncnc12 0.469%
COCc1cc(Sc2ccc(Cl)cc2)nc(C)n1 0.451%
COc1cccc(CNC(=O)c2ccc3c(c2)nc2n3CCC(C)C2)c1OC (stereo unspecified) -0.346%
Cc1cc(NC(=O)CCC(=O)N(c2ccc(F)cc2)C(C(=O)NC2CCCC2)c2ccccc2)no1 (stereo unspecified) -0.156%
CC1CCN(C(=O)CCCN2C(=O)c3cccnc3Oc3ccc(Cl)cc32)CC1 2.81%
CN(C)CCCNC(=O)/C=C/c1ccc2c(c1)OCO2 -0.396%
Nc1[nH]n2c(=O)c3c(nc2c1N=Nc1ccccc1)CCCC3 0.442%
O=[N+]([O-])c1cccc(NC(=S)N2CCc3ccccc32)c1 16.3%
O=C(CSc1nnc(-c2ccccn2)n1-c1ccc(Cl)cc1)Nc1ccc2c(c1)OCO2 -0.705%
COc1ccc(-n2cc(-c3ccccc3)c3c(NCCc4ccc(OC)c(OC)c4)ncnc32)cc1 -1.51%
CC(C)(C)Cc1c(-c2ccc(C#N)cc2)nc2c(Cl)cc(C(F)(F)F)cn12 0.796%
Cc1nc(-c2ccc(C)c(S(=O)(=O)N3CCC(C(=O)NCc4ccc(Cl)cc4)CC3)c2)no1 0.0907%
